Measurements reported in the RNAGym collection of RNA variant scans (doi:10.1073/pnas.2313332121).
Variants at the background level are over-represented here.

B1: TPR 5TU (parent)
chain: GGAUCUUCUCGAUCUAACAAAAAAGACAAAUCUGCCACAAAGCUUGAGAGCAUCUUCGGAUGCAGAGGCGGCAGCCUUCGGUGGCGCGAUAGCGCCAACGUUCUCAACUAUGACACGCAAAACGCGUGCUCCGUUGAAUGGAGUUUAUCAUG

Variants of: B1
Assay: polymerase ribozyme fitness, log enrichment relative to wild type (log ratio); higher = more active; in vitro selection for triplet polymerase activity
Method in brief: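 After PCR construction and transcription, each subunit's mutant library from a heterodimeric triplet polymerase ribozyme was annealed with a biotinylated primer, the partner subunit and triplets. Incubation was frozen, at −7 °C, and extended constructs were gel-excised, bound to streptavidin beads and amplified by RT-PCR, in one selection round done in triplicate. Fitness is the logarithm of a genotype's enrichment divided by that of the wild type, from inverse-variance-weighted replicate averages of Illumina-sequenced inputs and outputs. The base of the logarithm is 2, and genotypes needed ≥10 input reads and ≥1 read per output.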

| Variant | polymerase ribozyme fitness (log ratio) |
| --- | --- |
| GGAUCUUCUCGAUCUAACAAAAUAGACAAAUCUGCCACAAAGCUUGAGAGCAUCUUCGGGUGCAGAGGCGGCAGCCUUCGGUGGCGAGAUAACGCCAACGUUCGCUACUAUGACACGCAAAACGAGUGCUCCGUUGAAUGGAGUUUAUCAUG | ≤ -4.2 |
| GGAUCUUCUCGAUCUAACAAAAUAGACAAAUCUGCCACAAAGCUUGAGAGCAUCUUCGGAUGCAGCGGCGGCAGCCUUCGGUGGCGCGAUAGCGUCAGCGUUCUCAACUAUGACACGCAAAACGCGUGCGCCGUUGAAUGGAGUUUAUCAUG | ≤ -4.2 |
| GGAUCUUCUCGAUCUAACAAAAUAGACAAAUCUGCCACAAAGCUUGAGAGCAUCUUCGGAUGCAGUGGCGGCAGCCUUCGGUGGCGCGAUAGCGCCAACGUUCUCAACUUUGACACGCAAAACGCGUGCUCCGUUGAAUGGAGUGUAUCAUG | ≤ -4.2 |
| GGAUCUUCUCGAUCUAACAAAAUAGACAAAUCUGCCACAAAGCUUGAGAGCAUCUUCGGAUGCAGAGGCGGCGGCCUUCGGUGGCGUGAUAGCGCCAACGUUCUAAACUAUGACACGCAAAACGCGUGCUCCGUUGAAUGGAGUUUAUCAUG | ≤ -4.2 |
| GGAUCUUCUCGAUCUAACAAAAUAGACAAAUCUGCCACAAAGCUUGAGAGCAUCUUCGGAUGCAGAGGCGGCUGCCUUCGGUGGCGCGAUAGCGCCAACGUUCUAAACUAUGACACGCAAAACGCGUGCUCCGUUGAAUGGAGUUUAUCAUG | ≤ -4.2 |
| GGAUCUUCUCGAUCUAACAAAAUAGACAAAUCUGCCACAAAGCUUGAGAGCAUCUUCGGAUGCAGAGGCGGCAGCCUUCGGUGGCGCGAUCGCGCCAACGUUCUCAACUAUGACACGCAAAACGCGUGCUCCGUUGAAUGGAGUUUAUCAGG | ≤ -4.2 |
| GGAUCUUCUCGAUCUAACAAAAUAGACAAAUCUGCCACAAAGCUUGAGAGCAUCUUCGGAUGCAGAGGCGGCAGCCUUCGGUGGCGCGAUAGCGCCAACGUUCUCAACUAUGACACGCGUAACGCGUGCUCCGUUGAAUGGAGUUUAUCAUA | ≤ -4.2 |
| GGAUCUUCUCGAUCUAACAAAAUAGAGAAAUCUGCCUCAAAGCUUGAGAGCAUCUUCGGAUGCAGAGGCGGCAGCCUUCGGUGGCGCGAUAGCGGCAACGUUCUCAACUGUGACACGCAAAACGCGUGCUCCGUUGAAUCGAGUUUAUCAUG | -3.86 |
| GGAUCUUCUCGAUCUAACAAAAUAGAGAAAUCUGCCACAAAGCUUUAGAGCAUCUAGGGAUGCAGAUGCGGCAACCUGCGGUGGCGCCAUAGCGGCAACGGUCUCAACUAUGACACGCAAAACGCGUGCUCCGUUUAAUGGAGUUUAGCAUG | ≤ -4.2 |
| GGAUCUUCUCGAUCUAACAAAAUAGAGAAAUCUGCCACAAAGCUUGAGAGCAGCCUCGGAUGCAGAGGCGGCAGCCUUCGGUGGCGCGAUAGCGCCAACGUUCUCAACUAUGACACGCAGAACGCGUGCUCCGUUGAAUGGAGUUUAUCAUG | ≤ -4.2 |
| GGAUCUUCUCGAUCUAACAAAAUAGAUAAAUCUGCCUCAAAGCUUGAGAGCAUCUUCGGAUGCAGAGGCGGCAGCCUUCGGUGGCGCGAUAGCGCCAACGUUCUCAACUAUGACACGCAAAACGCUUGCUCCGUUGAAUGGAGUUUAUCAUG | ≤ -4.2 |
| GGAUCUUCUCGAUCUAACAAAAUAGAUAAAUCUGCCACAUAGCUUGAGAGCAUCUUCGGAUGCAGAGGCGGCAGCCUUCGGUGGCGCGAUCGCGCCAACGUUCUCAACUAUGACACGCAAAACGCGUGCUCCGUUGAAUGGAGUUUAUCAUG | ≤ -4.2 |
| GGAUCUUCUCGAUCUAACAAAAUAGACAAAUCUGACACAAGGCUUGAGAGCAUCUUCGGAGGCAGAGGCGGCAGUCUUCGGUGGCGCGAUAGCGCCAACGUUCUCAACUAUGACACGCAAAACGCGUGCUCCGUUGAAUGGAGUUUAUCAUG | ≤ -4.2 |
| GGAUCUUCUCGAUCUAACAAAAUAGACAAAUCUGACACAAAGCUUGCGAGCAUCUUCGGAUGCAGAGGCGGCAGCCUUCGGUGGCGCGAUAGCGCCAACGUUCUCAACUAUGACACGCAAAACCCGUGCUCCGUUGAAUGGAGUUUAUCAUG | ≤ -4.2 |
| GGAUCUUCUCGAUCUAACAAAAUAGACAAAUCUGACACAAAGCUUGAGAGCAUCUUCUGAUGCAGAGGCGGCAGCCUUCUGUGGCGCGAUAGCCCCAAGGUUCUCAACUAUGACACGCAAAACGCGUGCUCCGUUGAAUGGAGUUUAUCAGG | ≤ -4.2 |
| GGAUCUUCUCGAUCUAACAAAAUAGACAAAUCUGACACAAAGCUUGAGAGCAUCUUCGGAUGCAGAGGCGGCAGCCUUCGGUGGCGCGAUAGCGCCAACGUUCUCAACUAUGACACGCAAAACGCGUGCUCCGUUGAAUGGAGUCUAUCAUG | ≤ -4.2 |
| GGAUCUUCUCGAUCUAACAAAAUAGACAAAUCUGGCACAAAGCUUGAGAGCAUCUUCGGAUGCAGAGGCGGCAGCCUUCGGUGGCGCGAUAGCGCCAACGUUCUCAACUAUGACACGCAAAACGCGUGCUCCGUUGAAUGGAGUUUAUCAUG | ≤ -4.2 |
| GGAUCUUCUCGAUCUAACAAAAUAGACAAAUCUGUCACAAAGCUUGAGAGCAUAUUCGGAUGCAGAGGCGGCAGCCUUCGGUGGCGCGAUAGCGCCAACGUUCUCAACUAUGACACGCAAGACGCAUGCUCCGUUGAAUGGAGUUUAUCAUG | ≤ -4.2 |
| GGAUCUUCUCGAUCUAACAAAAUAGACAAAUCUGUCACAAAGCUUGAGAGCAUCUUCCGAUGCAGAGGCGGCAGCCUUCGGUGGCGCGAUAGUGCCAACGUUCUCAACUAUGACACGCAAAACGCGUGCUCCGUUGAAUGGAGUUUAUCAUG | ≤ -4.2 |
